# Measurements as given in publication PMC4336329 (PLoS ONE, 2015).
# Hit rate of the full screen: of about 310,000 compounds, about 14,000 (4.5%) showed an effect of 50% or more. Effects have a minus sign here. The list shows a part of the results.
# Target: human ether-à-go-go-related gene (hERG) potassium channel (human, UniProt Q12809)
# Assay: primary screen, population patch clamp on CHO cells stably expressing hERG
# 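Also: peak tail current of the secondary pulse compared with the same well before compound.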
# human ether-à-go-go-related gene (hERG) potassium channel, sequence (Q12809 whole entry, looked up): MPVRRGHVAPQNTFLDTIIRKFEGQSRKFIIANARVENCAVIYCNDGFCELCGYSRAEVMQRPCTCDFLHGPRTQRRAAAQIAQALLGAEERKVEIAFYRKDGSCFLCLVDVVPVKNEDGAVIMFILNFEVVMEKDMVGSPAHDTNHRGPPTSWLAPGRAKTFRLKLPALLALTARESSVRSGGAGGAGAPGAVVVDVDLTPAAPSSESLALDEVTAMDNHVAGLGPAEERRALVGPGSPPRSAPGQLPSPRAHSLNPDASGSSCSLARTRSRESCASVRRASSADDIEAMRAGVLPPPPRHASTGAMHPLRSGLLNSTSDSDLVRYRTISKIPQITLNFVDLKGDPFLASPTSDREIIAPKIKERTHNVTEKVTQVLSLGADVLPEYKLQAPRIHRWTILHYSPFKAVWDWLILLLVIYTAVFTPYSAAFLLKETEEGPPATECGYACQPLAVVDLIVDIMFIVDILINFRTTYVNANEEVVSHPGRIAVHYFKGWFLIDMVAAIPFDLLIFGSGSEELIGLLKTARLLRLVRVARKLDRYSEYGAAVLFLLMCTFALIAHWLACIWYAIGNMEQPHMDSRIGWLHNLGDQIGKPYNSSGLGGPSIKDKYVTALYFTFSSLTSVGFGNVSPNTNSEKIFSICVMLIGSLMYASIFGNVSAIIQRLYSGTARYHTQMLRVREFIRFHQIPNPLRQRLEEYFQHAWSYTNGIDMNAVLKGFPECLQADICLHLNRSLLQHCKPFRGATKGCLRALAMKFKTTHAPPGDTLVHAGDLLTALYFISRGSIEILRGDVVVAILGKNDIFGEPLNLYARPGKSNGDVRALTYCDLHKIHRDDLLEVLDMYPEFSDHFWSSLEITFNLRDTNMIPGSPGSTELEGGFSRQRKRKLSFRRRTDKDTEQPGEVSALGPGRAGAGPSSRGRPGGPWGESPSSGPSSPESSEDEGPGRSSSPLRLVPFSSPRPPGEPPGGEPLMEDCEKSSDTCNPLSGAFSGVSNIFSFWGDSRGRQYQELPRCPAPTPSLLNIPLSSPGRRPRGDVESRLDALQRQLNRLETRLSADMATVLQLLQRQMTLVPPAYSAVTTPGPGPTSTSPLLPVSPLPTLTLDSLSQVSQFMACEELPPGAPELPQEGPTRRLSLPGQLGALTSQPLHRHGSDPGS
row,Structure (SMILES),"hERG current change (%, negative = inhibition) at 10uM"
1,CCCCn1c(=O)[nH]c(=O)c2c1nc(-c1cc(Br)c(OCC)c(OC)c1)n2C,1.82%
2,COc1ccc(-c2cn3c(C)c(C(=O)NC(C)C)sc3n2)cc1,6.65%
3,COc1cc2sc(NC(=O)c3ccco3)nc2cc1Cl,11.6%
4,CCC(=O)N(Cc1cc2c(C)cc(C)cc2[nH]c1=O)C1CCCCC1,-29.1%
5,Clc1ccc(Nc2nc(-c3ccncc3)cs2)cc1,-0.224%
6,CCn1c(=O)n(CC(=O)NC2CCCC(C)C2C)c(=O)c2ccccc21 (stereo not shown),-4.78%
7,O=C(COC(=O)CNC(=O)C1CCCCC1)Nc1ccccc1Cl,23.3%
8,CCOC(=O)Cn1c(=NC(=O)C(C)C)sc2c(C)cc(C)cc21,-6.57%
9,Cc1ccc(-c2nnc(NC3CCCC3)s2)cc1,-22.6%
10,CCOC(=O)/C(C#N)=N/Nc1ccccc1C(=O)O,22.6%
11,O=C(CC1Sc2ncnn2C1=O)Nc1ccccc1 (stereo not shown),-1.91%
12,O=C(Nc1ccccc1N1CCOCC1)c1cccnc1Cl,-0.807%
13,CC(OC(=O)Cc1ccccc1[N+](=O)[O-])C(=O)Nc1ccc(Cl)cn1 (stereo not shown),-34.1%
14,Cc1cccc(NC(=O)COc2ccccc2C)n1,7.83%
15,CCCCc1nc(SCC(=O)N2CCCC2)c2c(=O)n(C)c(=O)n(C)c2n1,-23%
16,COc1ccc(C2=NC(=O)NC2c2ccc(OC)cc2)cc1 (stereo not shown),-29.4%
17,CCOC(=O)NCc1ccccc1,-6.72%
18,COc1ccc(C2CCN(CC(=O)N(C)C)CC2O)cc1 (stereo not shown),33.3%
19,COC(=O)c1ccccc1NC1=C/C(=N\S(=O)(=O)c2ccc(C(=O)O)cc2)c2ccccc2C1=O,-15.5%
20,O=C(CC1OCC2CCCN2C1=O)Nc1ccc([N+](=O)[O-])cc1 (stereo not shown),-7.77%
21,C/C(=N/NC(=O)c1ccc(C)s1)c1cccc(NC(=O)COc2ccc(Cl)cc2C)c1,3.47%
22,CCCN(C#N)c1nc(NCC)nc(NC(C)C)n1,-10.2%
23,COc1ccccc1N(C)S(=O)(=O)c1ccc(C(=O)N2CCC(C(N)=O)CC2)cc1,6.81%

row,Structure (SMILES),"hERG current change (%, negative = inhibition) at 10uM"
1,CC1=C(C(=O)Nc2ccccn2)C(c2ccc(Br)cc2)n2ncnc2N1 (stereo not shown),-22.5%
2,COc1cccc(-c2csc(N3CCN(CC(=O)NNC(=O)c4ccc(Br)cc4)CC3)n2)c1,-1.9%
3,CN(C)C(=O)c1cc(C(=O)c2ccc(C(F)(F)F)cc2F)c[nH]1,-6.29%
4,CCc1c(C)nc(SCC(=O)c2cccs2)c(C#N)c1C,-8.42%
5,Cc1ccc(CN2CC(C(=O)Nc3ccccc3N3CCCC3)CC2=O)cc1 (stereo not shown),-30.5%
6,NC(=O)C1CCN(C(=O)COc2ccc(S(=O)(=O)NC3CCCC3)cc2)CC1,27%
7,CCCNC(=O)c1cc(Cl)c(NC(=O)C2=CSCCO2)cc1OC,16.5%
8,CC(OC(=O)c1cccc(-n2cnnn2)c1)C(=O)Nc1ccc(F)cc1 (stereo not shown),-22.8%
9,NC(=O)c1ccc(Cn2c(C(=O)c3cc(Cl)c(N)c(Cl)c3)c3ccccc3[n+]2[O-])cc1,-10.4%
10,CC(=O)Nc1ccc(S(=O)(=O)c2cc(O)ccc2O)cc1,17%
11,COc1ccc(OC)c2sc(NNC(=O)COc3ccccc3)nc12,13.8%
12,O=C(CSc1nccc(=O)[nH]1)N1CCCc2ccccc21,11.4%
13,O=C(c1sc2cc(F)ccc2c1Cl)N1CCN(c2ccccc2)CC1,4.93%
14,CC(C)CCNC(=O)CN(Cc1ccc(F)cc1)C(=O)CCC(=O)Nc1ccccn1,-28.1%
15,COc1ccc(NC(=S)Nc2nc(CC(=O)Nc3ccccc3OC)cs2)cc1,0.296%
16,CCn1c(SCC(=O)NCc2ccccc2)nc2nc3c(cc2c1=O)CCCC3,-32.4%
17,COc1ccc(-c2nnc(SCC(=O)NC3CCCC3)n2C)cc1,13.1%
18,CCOC(=O)c1c(C)[nH]c(C(=O)Cn2nnc(-c3ccccc3)n2)c1C,6.93%
19,COc1ccc(COC(=O)c2ccc(Cl)c(S(=O)(=O)N3CCOCC3)c2)cc1F,-48.8%
20,O=C(Nc1ccccc1C(=O)O)c1cccc(C(=O)Nc2ccccc2C(=O)O)c1,23.7%
21,c1cc(CNc2ccc3c(c2)OCO3)ccn1,-4.39%
22,S=C(NCC1CCCCC1)Nc1cccnc1,-12.5%
23,CCOC(=O)C1CCCN(C(=O)CS(=O)(=O)Cc2ccccc2)C1 (stereo not shown),15.3%
